This passage reports binding results from paper PMC11772845.

B1: Tom22 (protein, UniProt P49334 1-152)
chain: MVELTEIKDDVVQLDEPQFSRNQAIVEEKASATNNDVVDDEDDSDSDFEDEFDENETLLDRIVALKDIVPPGKRQTISNFFGFTSSFVRNAFTKSGNLAWTLTTTALLLGVPLSLSILAEQQLIEMEKTFDLQSDANNILAQGEKDAAATAN
B2: Atp20 (protein, UniProt Q12233 1-115)
chain: MLSRIQNYTSGLVSKANLLSSKALYYGKVGAEISKQIYLKEGLQPPTVAQFKSVYSNLYKQSLNFALKPTEVLSCLKNIQKNELLKYGAYGIQLIGFYSVGEIIGRRKLVGYKHH
B3: Rcf1 (protein, UniProt Q03713 1-159)
chain: MSRMPSSFDVTERDLDDMTFGERIIYHCKKQPLVPIGCLLTTGAVILAAQNVRLGNKWKAQYYFRWRVGLQAATLVALVAGSFIYGTSGKELKAKEEQLKEKAKMREKLWIQELERREEETEARRKRAELARMKTLENEEEIKNLEKELSDLENKLGKK
B4: Rcf2 (protein, UniProt P53721 1-224)
chain: MKILTQDEIEAHRSHTLKGGIEGALAGFAISAIIFKVLPRRYPKFKPSTLTWSIKTALWITPPTVLTAICAEEASNNFDATMYGSGSSSEDALDEHRRWKSLSTKDKFVEGLSNNKYKIITGAWAASLYGSWVIVNKDPIMTKAQKIVQARMYAQFITVGLLLASVGLSMYENKLHPNKQKVNEMRRWENALRVAEEEERLEKEGRRTGYVSNEERINSKIFKS
B5: OM14 (protein, UniProt P38325 1-134)
chain: MSATAKHDSNASPNSDSEDGHHHNNKKECAIEYLKARLNSASAVACGYLQAFVSKTQDFAKVCFLELQNPVVLVNLLLHSSVVCYLCNGYANHNARFLKGKPNSTVLATTAGALGLLTLDGIISKKYYSRYDKK
B6: Shy1 (protein, UniProt P53266 1-389)
chain: MSLLGARSTYRWFSIAASIPTKNAIGKSTYLLASRNQQYRGIITSTVDWKPIKTGKSPNDDSRRERSFGKKIVLGLMFAMPIISFYLGTWQVRRLKWKTKLIAACETKLTYEPIPLPKSFTPDMCEDWEYRKVILTGHFLHNEEMFVGPRKKNGEKGYFLFTPFIRDDTGEKVLIERGWISEEKVAPDSRNLHHLSLPQEEHLKVVCLVRPPKKRGSLQWAKKDPNSRLWQVPDIYDMARSSGCTPIQFQALYDMKDHPIIEEHTRNEASQNNSTSSLWKFWKREPTTAVNGTQAVDNNTSKPRSRQEMPTDQTIEFDERQFIKAGVPIGRKPTIDLKNNHLQYLVTWYGLSFLSTIFLIVALRKAKRGGVVSQDQLMKEKLKHSRKYM
B7: Mss51 (protein, UniProt P32335 27-436)
chain: VVSHQTRRHLMGFVRNALGLDPPPSPEDPTPENRFHPWDQSPSVDLRERAAKIRTLAHCPVTGKDINYTCPLSGIPTHHSREAWEMDKAYHDSKKYEILKKVNIYEHDLRSGRPFPEFDFPQQQGYDKAVNLTNWDLFFYTRSFYSMDTEFQLAAVTKMLSYPITIGSLLHKFSPYSLNPKGPITLEGLKSLAALRYTLYPLENRSLPTTTKNRAMRIFILGARAEAQLPGHVWKQLQFLFPEQSFEIHFIGPECLYKRDKQEYVKSTTPVVQRVDETLKFIYRTNFFEVFHEAQDFFPYDPYMDVFFTFHPGYASPESHGSWMGETMKALLETKCAIFTTGFNKKDLTDDINLVKSKYGKEMDVLMEPVRNVFGSTKWELNDMNPQEVYQFNMYIAGFRGKRYHTIKRQ
B8: Atp19 (protein, UniProt P81451 1-68)
chain: MGAAYHFMGKAIPPHQLAIGTLGLLGLLVVPNPFKSAKPKTVDIKTDNKDEEKFIENYLKKHSEKQDA
B9: Atp21 (protein, UniProt P81449 1-96)
chain: MSTVNVLRYSALGLGLFFGFRNDMILKCNAKKKEEQAQYEEKLKLVEEAKKEYAKLHPVVTPKDVPANASFNLEDPNIDFERVILNAVESLKEAST
B10: Cyt1 (protein, UniProt P07143 62-309)
chain: MTAAEHGLHAPAYAWSHNGPFETFDHASIRRGYQVYREVCAACHSLDRVAWRTLVGVSHTNEEVRNMAEEFEYDDEPDEQGNPKKRPGKLSDYIPGPYPNEQAARAANQGALPPDLSLIVKARHGGCDYIFSLLTGYPDEPPAGVALPPGSNYNPYFPGGSIAMARVLFDDMVEYEDGTPATTSQMAKDVTTFLNWCAEPEHDERKRLGLKTVIILSSLYLLSIWVKKFKWAGIKTRKFVFNPPKPRK
B11: Rip1 (protein, UniProt P08067 31-215)
chain: KSTYRTPNFDDVLKENNDADKGRSYAYFMVGAMGLLSSAGAKSTVETFISSMTATADVLAMAKVEVNLAAIPLGKNVVVKWQGKPVFIRHRTPHEIQEANSVDMSALKDPQTDADRVKDPQWLIMLGICTHLGCVPIGEAGDFGGWFCPCHGSHYDISGRIRKGPAPLNLEIPAYEFDGDKVIVG
B12: Qcr8 (protein, UniProt P08525 1-94)
chain: MGPPSGKTYMGWWGHMGGPKQKGITSYAVSPYAQKPLQGIFHNAVFNSFRRFKSQFLYVLIPAGIYWYWWKNGNEYNEFLYSKAGREELERVNV
B13: Mic26 (protein, UniProt P50087 1-233)
chain: MTKDFYRQLDPVEEKIVPPENAIVISSEAKEATVNEKEAKQGVLSQRVMKYIGENELVDGISVRDPDYLKRFFNERRKQFSAKWDKVTNKIDDIAGRYYAREESFTSTIASLHTDPNERLIPGLLSILVASMTGSVLARRRTWLLRATMPIILGSCCFAYAMPTTFRNTMGLIHNLEMNTFPHFTERQDRVWKETKRLSTASVQYYYDAKKWLNKDVEKTGNAIKNWTGVNVK
B14: Cox2 (protein, UniProt P00410 16-251)
chain: DVPTPYACYFQDSATPNQEGILELHDNIMFYLLVILGLVSWMLYTIVMTYSKNPIAYKYIKHGQTIEVIWTIFPAVILLIIAFPSFILLYLCDEVISPAMTIKAIGYQWYWKYEYSDFINDSGETVEFESYVIPDELLEEGQLRLLDTDTSMVVPVDTHIRFVVTAADVIHDFAIPSLGIKVDATPGRLNQVSALIQREGVFYGACSELCGTGHANMPIKIEAVSLPKFLEWLNEQ
B15: Cox9 (protein, UniProt P07255 1-59)
chain: MTIAPITGTIKRRVIMDIVLGFSLGGVMASYWWWGFHMDKINKREKFYAELAERKKQEN
B16: Yme1 (protein, UniProt P32795 1-747)
chain: MNVSKILVSPTVTTNVLRIFAPRLPQIGASLLVQKKWALRSKKFYRFYSEKNSGEMPPKKEADSSGKASNKSTISSIDNSQPPPPSNTNDKTKQANVAVSHAMLATREQEANKDLTSPDAQAAFYKLLLQSNYPQYVVSRFETPGIASSPECMELYMEALQRIGRHSEADAVRQNLLTASSAGAVNPSLASSSSNQSGYHGNFPSMYSPLYGSRKEPLHVVVSESTFTVVSRWVKWLLVFGILTYSFSEGFKYITENTTLLKSSEVADKSVDVAKTNVKFDDVCGCDEARAELEEIVDFLKDPTKYESLGGKLPKGVLLTGPPGTGKTLLARATAGEAGVDFFFMSGSEFDEVYVGVGAKRIRDLFAQARSRAPAIIFIDELDAIGGKRNPKDQAYAKQTLNQLLVELDGFSQTSGIIIIGATNFPEALDKALTRPGRFDKVVNVDLPDVRGRADILKHHMKKITLADNVDPTIIARGTPGLSGAELANLVNQAAVYACQKNAVSVDMSHFEWAKDKILMGAERKTMVLTDAARKATAFHEAGHAIMAKYTNGATPLYKATILPRGRALGITFQLPEMDKVDITKRECQARLDVCMGGKIAEELIYGKDNTTSGCGSDLQSATGTARAMVTQYGMSDDVGPVNLSENWESWSNKIRDIADNEVIELLKDSEERARRLLTKKNVELHRLAQGLIEYETLDAHEIEQVCKGEKLDKLKTSTNTVVEGPDSDERKDIGDDKPKIPTMLNA
B17: Radiolabeled Rip1 (protein, UniProt P08067 1-215)
chain: MLGIRSSVKTCFKPMSLTSKRLISQSLLASKSTYRTPNFDDVLKENNDADKGRSYAYFMVGAMGLLSSAGAKSTVETFISSMTATADVLAMAKVEVNLAAIPLGKNVVVKWQGKPVFIRHRTPHEIQEANSVDMSALKDPQTDADRVKDPQWLIMLGICTHLGCVPIGEAGDFGGWFCPCHGSHYDISGRIRKGPAPLNLEIPAYEFDGDKVIVG
modifications: [^35S]methionine label

Results are given in words; binding and its absence hold for the method and conditions named. In cells and extracts the contact can be indirect. Some entries that bind do so weakly or less than the wild type.

The target of the first test is T1, Mic12_(ProtA) (S. cerevisiae) (UniProt P38341).
T1 sequence: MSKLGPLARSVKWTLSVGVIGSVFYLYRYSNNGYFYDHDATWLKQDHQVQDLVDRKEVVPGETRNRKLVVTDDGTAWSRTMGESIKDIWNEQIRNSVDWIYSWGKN
Put plainly: co-IP; protein A- or TAP-tagged bait captured on IgG-Sepharose from mitochondria solubilised in 1% digitonin (20 mM Tris-HCl pH 7.4, 50 mM NaCl, 0.1 mM EDTA, 10% glycerol), washed with 0.3% digitonin, eluted with TEV protease at 4 °C; eluates analysed by SDS-PAGE or BN-PAGE and western blot; untagged wild type as control; also done with rho-, mic10Δ (Mic60 bait), mar26Δ, rip1Δ and Mar26-overexpressing mitochondria. A general note: A western blot detects proteins with antibodies after separation by electrophoresis.
For B1, the binding result is recorded as “no binding”.

B2: the binding result was “no binding”.

For B3, the binding result is reported as “binds”.

Regarding B4, the binding entry is listed as “binds”.

For the molecule B5, the binding result is reported as “no binding”.

B6: the binding result was “binds”.

As to B7, the binding result is on record as “binds”.

For the molecule B8, the binding result is reported as “no binding”.

In a further test the target is T2, Mic60_(ProtA) (S. cerevisiae) (UniProt P36112).
T2 sequence: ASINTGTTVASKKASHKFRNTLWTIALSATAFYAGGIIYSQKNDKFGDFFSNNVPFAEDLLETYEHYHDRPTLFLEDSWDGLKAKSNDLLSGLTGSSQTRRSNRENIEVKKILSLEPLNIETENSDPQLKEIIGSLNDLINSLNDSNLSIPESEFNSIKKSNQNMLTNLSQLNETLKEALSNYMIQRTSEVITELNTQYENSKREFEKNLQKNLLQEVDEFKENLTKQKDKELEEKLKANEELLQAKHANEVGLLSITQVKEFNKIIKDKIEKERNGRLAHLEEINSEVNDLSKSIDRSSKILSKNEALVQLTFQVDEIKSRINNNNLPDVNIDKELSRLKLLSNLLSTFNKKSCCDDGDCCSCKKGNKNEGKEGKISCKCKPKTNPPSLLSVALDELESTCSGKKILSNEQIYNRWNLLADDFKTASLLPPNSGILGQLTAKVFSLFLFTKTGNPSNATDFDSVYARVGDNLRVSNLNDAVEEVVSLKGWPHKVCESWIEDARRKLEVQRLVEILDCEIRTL
The test is described as above.
Consider B9, for which the binding result is “no binding”.

As to B10, the binding result is “binds”.

For the molecule B1, the binding entry was “binds”.

Regarding B11, the binding result is “binds”.

B12: the binding result is “binds”.

B13: the binding result was “binds”.

On to B2, for which the binding entry is recorded as “no binding”.

As to B3, the binding result is on record as “binds”.

For B14, the binding result is reported as “binds”.

On to B4, for which the binding result is given as “binds”.

Consider B5, for which the binding entry was “no binding”.

Consider B6, for which the binding result was “binds”.

For B7, the binding entry is reported as “binds”.

In the case of B8, the binding entry was “no binding”.

Take B15: the binding entry is given as “binds”.

For the molecule B16, the binding result is “no binding”.

For a further test, the target named is T2, Mic60_(ProtA) (S. cerevisiae). Put plainly: co-IP; [^35S]-labelled precursor imported into isolated mitochondria that carry the protein A-tagged bait; then digitonin solubilisation, IgG chromatography, SDS-PAGE (or two-dimensional gel) and autoradiography.
For the molecule B17, the binding result is “binds”.
